# According to PubChem BioAssay AID485294 (National Center for Advancing Translational Sciences (NCATS), 2010):
# Several values for one entry are separate records, joined by “and”; a condition that tells them apart may be missing. Identical values can stand only once. Screen size: about 370,000 compounds; about 150 (0.041%) were called active. Inconclusive means that the source gave no clear call. Such entries were picked first, then a sample of the others. Calls follow the shape of the dose curve; as a rule, active = well fitted inhibition curve with a large enough effect; inconclusive = small, poorly fitted or top-dose-only effect; inactive = flat fitted curve, though single readings scatter. A potency beside an inconclusive call is a rough fit, not a confirmed value.
# Target: Beta-lactamase (Escherichia coli (strain K12)) (UniProt P00811)
# Assay: qHTS Inhibitors of AmpC Beta-Lactamase (assay with detergent); also: nearly all actives have a fitted effect of over 25% in size;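 as to activity change, negative = inhibition: 0% = no-compound wells and -100% = no-enzyme wells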
# Settings: AmpC hydrolysis of nitrocefin, absorbance 480 nm, 0.01% Triton; activity change, negative = inhibition: at 114 µM (top of the series)
# Summary of the method: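 AmpC (5.3 nM in the dispensed reagent) in 20 mM phosphate pH 7.0 with 0.01% (detergent screen) or 0.0001% Triton X-100 was preincubated with compounds for 15 min at room temperature. Nitrocefin was then added from an 800 uM solution, and hydrolysis was followed at 480 nm.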
# Potency is read from the fitted curve at half-maximal effect; tags tell the direction and shape of the fitted curve.
# Sequence of UniProt P00811 (P00811 whole entry, looked up): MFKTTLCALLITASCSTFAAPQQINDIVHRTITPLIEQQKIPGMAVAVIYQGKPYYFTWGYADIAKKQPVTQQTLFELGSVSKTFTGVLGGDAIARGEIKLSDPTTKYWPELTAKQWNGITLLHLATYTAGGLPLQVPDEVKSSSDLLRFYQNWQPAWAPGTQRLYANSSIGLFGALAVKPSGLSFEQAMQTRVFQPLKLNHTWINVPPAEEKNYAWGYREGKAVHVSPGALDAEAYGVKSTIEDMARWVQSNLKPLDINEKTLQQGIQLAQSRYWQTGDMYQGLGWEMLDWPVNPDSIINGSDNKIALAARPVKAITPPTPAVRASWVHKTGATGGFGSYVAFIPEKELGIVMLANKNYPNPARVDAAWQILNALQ
Structure (SMILES),Potency,"activity change, negative = inhibition"
Cn1ncc(Br)c1C(=O)NC1CCCC1,"inconclusive: 79.4 µM [inhibitor, single point]",–
COC(=O)c1sccc1NC(=O)Nc1ccc(F)cc1,–,inactive: 1.82%
CC1CCCN(C(=O)CCS(=O)(=O)Cc2ccccc2)C1 (stereo unspecified),"inconclusive: 3.55 µM [inhibitor, full curve, poor fit]",–
COc1cc(NC2CCCCC2O)c2nc(-c3ccc(Cl)cc3)ccc2c1 (stereo unspecified),"inconclusive: 2.82 µM [inhibitor, single point]",–
COC(=O)C1=C(c2cccc3c2S(=O)(=O)c2ccccc2-3)C[C@@H]2CC[C@H]1N2C(=O)N1CCc2cc(OC)c(OC)cc2C1,"inconclusive: 12.6 µM [inhibitor, partial curve]",–
O=c1[nH]cnc2scc(-c3ccc(F)cc3)c12,"inconclusive: 2.82 µM [inhibitor, partial curve, poor fit]",–
C=CCNc1nnc(-c2ccncc2)s1,"inconclusive: 28.2 µM [inhibitor, full curve, poor fit]",–
COc1ccccc1N1CCN(c2csc3ccc(Cl)cc3c2=O)CC1,–,inactive: 2.77%
N#Cc1c(NC(=O)Cn2cnc3ccccc3c2=O)oc(-c2ccccc2)c1-c1ccccc1,"inconclusive: 35.5 µM [inhibitor, full curve, poor fit]",–
COc1cc(/C=C(/NC(=O)c2ccccc2)C(=O)N2CCN(C)CC2)c([N+](=O)[O-])cc1OC,"inconclusive: 31.6 µM [inhibitor, full curve]",–
Cc1c(N=Cc2c(O)n(Cc3ccco3)c(=O)c3ccccc23)c(=O)n(-c2ccccc2)n1C,"inconclusive: 100 µM [inhibitor, single point]",–
COc1cccc(-c2cc(N)nn2C(=O)Nc2ccc(Cl)cc2)c1,"inconclusive: 0.631 µM [inhibitor, full curve, poor fit]",–
O=C(CCc1ccccc1)NC(=S)Nc1ccccc1[N+](=O)[O-],"inconclusive: 0.708 µM [inhibitor, full curve, poor fit]",–
CCn1c(CCCNC(=O)c2ccco2)nc2ccccc21,"inconclusive: 0.631 µM [inhibitor, full curve, poor fit]",–
CCOC(=O)C1CCN(Cc2nc3ccccc3c(=O)n2-c2ccc(F)cc2)CC1,"inconclusive: 0.631 µM [inhibitor, full curve, poor fit]",–
Cc1cc2c(C(F)(F)F)cc(=O)oc2c2c1NCCC2,"inconclusive: 44.7 µM [inhibitor, partial curve, poor fit]",–
O=C(Cc1ccc([N+](=O)[O-])cc1)N1CCN(c2ccc([N+](=O)[O-])cc2)CC1,"inconclusive: 22.4 µM [inhibitor, partial curve]",–
Cc1ccc(C(C)C)c(OCCCN2C(=O)NC(C)(C)C2=O)c1,"inconclusive: 5.01 µM [inhibitor, full curve, poor fit]",–
COc1cc(OC)c(NC(=O)c2cc(CN3CCOCC3)on2)cc1Cl,–,inactive: -7.03%
Cc1ccccc1CSc1nnc(C)c(=O)[nH]1,"inconclusive: 17.8 µM [inhibitor, partial curve, poor fit]",–
COc1ccc(S(=O)(=O)N2CCN(c3ccccc3OC)CC2)cc1-c1noc(C)n1,–,inactive: 19.7%

Structure (SMILES),Potency,"activity change, negative = inhibition"
COc1cc(/C=C(\C#N)c2nc3ccccc3c(=O)[nH]2)cc(OC)c1OC,–,inactive: -5.11%
O=C(Nc1ccc(N2CCN(C(=O)c3ccco3)CC2)c(Cl)c1)c1cc2ccccc2o1,–,inactive: -0.932%
COc1ccc(CCN(C)C(=O)C2CCN(C(=O)Nc3ccccc3)CC2)cc1OC,"inconclusive: 50.1 µM [inhibitor, partial curve, poor fit]",–
COc1ccc(NC(=O)C2CCN(S(=O)(=O)c3ccc4c(c3)CCCC(=O)N4)CC2)cc1Cl,–,inactive: 14.9%
O=C(CCS(=O)(=O)c1ccc(Br)cc1)Nc1ccccc1Cl,–,inactive: 1.98%
CC1CCCC(C)N1NC(=S)Nc1ccc(OC(F)F)cc1 (stereo unspecified),"inconclusive: 0.251 µM [inhibitor, full curve, poor fit]",–
COc1cccc(NS(=O)(=O)c2nc3nc(C)cc(C)n3n2)c1,"inconclusive: 0.562 µM [inhibitor, full curve, poor fit]",–
O=C(N/N=C/c1cc2c(cc1Br)OCO2)c1cc2ccccc2o1,–,inactive: -8.31%
O=C(CSc1ccccc1)N1CCN(c2ccccn2)CC1,"inconclusive: 25.1 µM [inhibitor, single point]",–
Oc1ccc(Nc2ccnc3cc(Cl)ccc23)cc1,–,inactive: 8.22%
O=C(COC(=O)c1ccc(S(=O)(=O)NCc2ccco2)cc1)NC1CCCCC1,"inconclusive: 0.631 µM [inhibitor, full curve, poor fit]",–
COCCCNC(=O)COc1ccc(S(=O)(=O)Nc2ccccc2)cc1,"inconclusive: 31.6 µM [inhibitor, partial curve, poor fit]",–
O=C(COC(=O)CCOc1ccccc1)NCc1ccco1,"inconclusive: 0.631 µM [inhibitor, full curve, poor fit]",–
O=C(NCc1ccc2c(c1)OCO2)c1cnc2ccccn2c1=O,–,inactive: 1.28%
NC(=O)C1(N2CCCCC2)CCN(C(=S)NC2CCCC2)CC1,"inconclusive: 28.2 µM [inhibitor, full curve, poor fit]",–
Cc1ccc(S(=O)(=O)CCC(=O)OCc2cc(C)ccc2C)cc1,"inconclusive: 0.631 µM [inhibitor, full curve, poor fit]",–
COc1ccc(C2=NS(=O)(=O)N(C)C(C(=O)NCc3ccco3)=C2)cc1OC,"inconclusive: 0.316 µM [inhibitor, full curve, poor fit]",–
O=C(NCc1nc2ccccc2[nH]1)c1cccc(S(=O)(=O)N2CCCCC2)c1,"inconclusive: 0.631 µM [inhibitor, full curve, poor fit]",–
COC(=O)C1=C(C)N(Cc2ccccc2)C(=S)N[C@H]1c1cccc(F)c1,"inconclusive: 89.1 µM [inhibitor, partial curve] and inconclusive: 20 µM [inhibitor, partial curve, poor fit]",–
CC(C)c1nc(SCc2c(F)cccc2Cl)c2c(=O)n(C)c(=O)n(C)c2n1,"inconclusive: 1.12 µM [inhibitor, full curve, poor fit]",–
